Experimental data published in PMC11995724, “Antibiotic target discovery by integrated phenotypic and activity-based profiling of electrophilic fragments” (Cell chemical biology, 2025).
Screen size: about 3,200 compounds; about 75 (2%) showed an effect of 50% or more. The list shows a part of the results.

System: T1, S. aureus MSSA476
T1 construct: MSSA476
Parameters: species or system S. aureus MSSA476 (TSB) or V. cholerae SAD30 (LB); 384-well bacterial growth screen at 25 uM, OD600 relative to DMSO control
Conditions: relative growth, OD600, TSB; 25 µM; inhibitor

Structure (SMILES) | % of control remaining
N#CC(=Cc1cccc(Oc2ccccc2)c1)C(=O)N1CCCC1 [9-F06, 3-(3-phenoxyphenyl)-2-(pyrrolidine-1-carbonyl)prop-2-enenitrile] | 114.157%
C=CC(=O)NC(c1nccs1)C(F)(F)F (stereo not shown) [2-N07, N-[2,2,2-trifluoro-1-(1,3-thiazol-2-yl)ethyl]prop-2-enamide] | 101.305%
COc1ccc(OC)c(-c2csc(NC(=O)CCl)n2)c1 [4-H12, 2-chloro-N-[4-(2,5-dimethoxyphenyl)-1,3-thiazol-2-yl]acetamide] | 86.8985%
CC(Cl)C(=O)N1CC(c2cc(CO)on2)C1 (stereo not shown) [7-M10, 2-chloro-1-{3-[5-(hydroxymethyl)-1,2-oxazol-3-yl]azetidin-1-yl}propan-1-one] | 93.2496%
C=CC(=O)N(Cc1cc2ccccn2n1)CC1(O)CCCCC1 [1-H15, N-[(1-hydroxycyclohexyl)methyl]-N-({pyrazolo[1,5-a]pyridin-2-yl}methyl)prop-2-enamide] | 113.934%
O=C(CCl)Nc1cc(Cl)cc(Cl)c1 [4-K09, 2-chloro-N-(3,5-dichlorophenyl)acetamide] | 77.7513%
O=C(Cc1cccc(F)c1)N1CCSSCC1 [10-L21, 1-(1,2,5-dithiazepan-5-yl)-2-(3-fluorophenyl)ethan-1-one] | 106.25%
O=C(CCl)Cc1ccc(Cl)c(Cl)c1 [10-E15, 1-chloro-3-(3,4-dichlorophenyl)propan-2-one] | 111.25%
COc1ccc(S(N)(=O)=O)cc1NC(=O)CCl [6-O03, 2-chloro-N-(2-methoxy-5-sulfamoylphenyl)acetamide] | 101.073%
CC(Cl)C(=O)Nc1ccc(N(C)C)cc1.Cl (stereo not shown) [5-N04, 2-chloro-N-[4-(dimethylamino)phenyl]propanamide hydrochloride] | 77.2313%
Cc1ccc(C=C(C#N)C(=O)Nc2cc(Cl)ccc2Cl)s1 [9-E19, 2-cyano-N-(2,5-dichlorophenyl)-3-(5-methylthiophen-2-yl)prop-2-enamide] | 104.27%
COc1cccc(NC(=O)C(C#N)=Cc2ccc([N+](=O)[O-])o2)c1 [8-A19, 2-cyano-N-(3-methoxyphenyl)-3-(5-nitrofuran-2-yl)prop-2-enamide] | 99.2531%
C=CC(=O)NC(Cn1ccnc1)c1ccccc1 (stereo not shown) [2-M06, N-[2-(1H-imidazol-1-yl)-1-phenylethyl]prop-2-enamide] | 90.8616%
